# PMC4336329 (PLoS ONE, 2015)
# Out of some 310,000 compounds screened, about 2,200 (0.71%) showed an effect of 50% or more. Effects have a minus sign here. The list shows a part of the results.
# Target: human ether-à-go-go-related gene (hERG) potassium channel (human, UniProt Q12809)
# Assay: primary screen, population patch clamp on CHO cells stably expressing hERG
# human ether-à-go-go-related gene (hERG) potassium channel, sequence (Q12809 whole entry, looked up): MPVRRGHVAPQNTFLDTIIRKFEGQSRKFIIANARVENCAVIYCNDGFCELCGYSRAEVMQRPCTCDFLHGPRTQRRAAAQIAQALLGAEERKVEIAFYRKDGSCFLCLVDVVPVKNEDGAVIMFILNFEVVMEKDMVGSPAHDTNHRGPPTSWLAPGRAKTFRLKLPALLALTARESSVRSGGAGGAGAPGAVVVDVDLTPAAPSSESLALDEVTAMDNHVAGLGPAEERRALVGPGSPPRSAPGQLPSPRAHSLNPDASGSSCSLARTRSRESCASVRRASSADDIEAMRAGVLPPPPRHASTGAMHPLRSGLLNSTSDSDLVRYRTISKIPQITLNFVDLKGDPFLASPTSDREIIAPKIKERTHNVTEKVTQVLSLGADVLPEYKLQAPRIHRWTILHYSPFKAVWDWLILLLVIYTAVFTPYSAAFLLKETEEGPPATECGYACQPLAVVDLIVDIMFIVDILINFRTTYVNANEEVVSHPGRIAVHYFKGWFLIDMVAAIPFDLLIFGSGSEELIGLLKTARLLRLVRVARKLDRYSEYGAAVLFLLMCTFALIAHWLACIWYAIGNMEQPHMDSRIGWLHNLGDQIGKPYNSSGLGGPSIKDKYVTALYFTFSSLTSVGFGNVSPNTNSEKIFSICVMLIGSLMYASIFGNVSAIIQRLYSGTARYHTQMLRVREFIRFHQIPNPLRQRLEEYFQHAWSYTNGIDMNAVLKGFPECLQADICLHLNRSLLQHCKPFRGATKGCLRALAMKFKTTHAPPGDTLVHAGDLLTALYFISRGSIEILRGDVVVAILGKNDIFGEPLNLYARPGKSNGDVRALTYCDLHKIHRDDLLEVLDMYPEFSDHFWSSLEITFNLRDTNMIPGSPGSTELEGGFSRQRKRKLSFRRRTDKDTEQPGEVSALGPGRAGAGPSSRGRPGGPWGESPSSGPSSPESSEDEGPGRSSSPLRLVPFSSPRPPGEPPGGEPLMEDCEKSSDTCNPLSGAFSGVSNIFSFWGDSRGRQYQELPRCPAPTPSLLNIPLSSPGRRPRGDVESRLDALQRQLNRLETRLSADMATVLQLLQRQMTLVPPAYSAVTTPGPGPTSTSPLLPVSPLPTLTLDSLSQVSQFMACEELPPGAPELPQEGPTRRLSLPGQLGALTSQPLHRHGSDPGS
row,SMILES,"hERG current change (%, negative = inhibition) at 1uM"
1,O=C(CSc1nnnn1Cc1ccccc1)N1CCN(c2ccccc2)CC1,1.64%
2,O=C(COc1ccc(-c2ccccc2)cc1)NNC(=O)Nc1ccccc1,13.1%
3,CCn1cc(CNC(=O)CSc2nc(-c3ccc(OC)c(OC)c3)cc(C(F)(F)F)n2)c(C)n1,10.3%
4,CC1CC(C)CN(C(=O)c2ccc(N3CC4CC(C3)c3cccc(=O)n3C4)c([N+](=O)[O-])c2)C1 (stereo not drawn),7.07%
5,CCCCn1c(N)c(N(CCC(C)C)C(=O)c2ccc3c(c2)OCCO3)c(=O)[nH]c1=O,15.5%
6,COc1ccc(C2=NS(=O)(=O)N(C)C(C(=O)N3CCCCC3)=C2)cc1OC,5.92%
7,CC(=O)Nc1ccc(C(=O)NNC(=O)C2C3CCCCC32)cc1 (stereo not drawn),-2.07%
8,CC1(C)OC(C)(C)/C(=C\c2ccccc2[N+](=O)[O-])C1=O,3.04%
9,Cc1cc(OCC(=O)Nc2ccccn2)c2c(C)cc(=O)oc2c1,14.3%
10,Oc1ccc(Br)cc1/C=N/Nc1ccccn1,15%
11,O=[N+]([O-])c1ccc(OCc2nnc(-c3ccccc3)o2)cc1,11.4%
12,Cc1ccc(C)c(NC(=O)C(OC(=O)c2ccc(C)s2)c2ccccc2)c1 (stereo not drawn),11.5%
13,CCOC(=O)N1CCC(N2Cc3cccc(C(=O)N4CC(C)CC(C)C4)c3C2=O)CC1 (stereo not drawn),2.06%
14,O=C(CSCc1ccccc1)N1CCN(c2ccc(F)cc2)CC1,2.03%
15,CCn1c(C(C)NC(=O)c2ccccc2C)n[nH]c1=S (stereo not drawn),10.1%
16,CCCN=Cc1ccc(O)cc1,13.8%
17,CC(OC(=O)C1CC(=O)N(Cc2ccccc2)C1)C(=O)Nc1ccccc1[N+](=O)[O-] (stereo not drawn),3.73%
18,N#CC1=C(N)OC2=C(C(=O)CCC2)C1c1ccncc1 (stereo not drawn),10.4%
19,CCOC(=O)C(Cc1ccccc1)C(=O)Nc1ccc(N(CC)CC)cc1 (stereo not drawn),8.67%
20,O=C(CCSc1nc2ccccc2o1)N1CCOCC1,8.39%
21,O=C(CC(c1ccccc1)c1ccccc1)Nc1ccc(O)cc1,11.6%
22,O=C(COc1cccc2ccccc12)NNC(=O)[C@@H]1CCCC[C@@H]1C(=O)O,16.6%
23,Cc1cc(NC(=O)c2cccc(S(=O)(=O)N3CCCCCC3)c2)no1,13.7%
24,CC(=O)Nc1ccc(C(=O)N/N=C/c2ccncc2)cc1,9%
25,Cc1cccc(C)c1NC(=O)C(c1cccs1)N(Cc1ccco1)C(=O)Cn1nnc2ccccc21 (stereo not drawn),13.5%
26,O=C(Nc1sc2c(c1C(=O)NC1CC1)CCCCCC2)c1ccco1,3.37%
27,CCCCCCSc1nc(O)c(C2OC(=O)c3c2ccc(OC)c3OC)c(=O)n1-c1ccccc1 (stereo not drawn),14.9%

row,SMILES,"hERG current change (%, negative = inhibition) at 1uM"
1,Cc1nn(-c2ccccc2)c(C)c1/C=C/C(=O)OCC(=O)N(C)C1CCS(=O)(=O)C1 (stereo not drawn),11.9%
2,Cc1ccc(/C=C(\NC(=O)c2ccccc2)C(=O)NCC2CCCO2)o1 (stereo not drawn),6.53%
3,COC(=O)C1C(O)=C(C=Nc2cccc3ccccc23)C(=O)CC1(C)C (stereo not drawn),5.11%
4,O=C1OCCC1Sc1nc2ccccc2c(=O)n1-c1ccc(F)cc1 (stereo not drawn),10.7%
5,O=C(NCCN1CCCCC1)c1cc(OCC(F)(F)F)ccc1OCC(F)(F)F,-17.2%
6,COc1ccc(-n2c(SCC(=O)NCC3CCCO3)nc3c(c2=O)SC(C)C3)cc1 (stereo not drawn),-0.154%
7,NC(=O)c1nsc(C(=O)N(CC(=O)NCc2ccccc2)c2cccc(F)c2)c1N,4.16%
8,COC(=O)c1oc2ccc(Br)cc2c1NC(=O)CCCN1C(=O)c2ccccc2C1=O,17.7%
9,CC(OC(=O)c1ccc2c(c1)OCCO2)C(=O)c1ccccc1 (stereo not drawn),10.3%
10,CCOC(=O)C1=CC[C@H]2c3c(c4ccccc4n3C)C(=O)C1N2S(=O)(=O)c1ccc(C)cc1,3.67%
11,C=CCn1c(SCC(=O)N2CCCC2)nc2scc(-c3cccs3)c2c1=O,-10.2%
12,O=C(Nc1nnc(SCc2ccc(F)cc2)s1)C1Cc2ccccc2CN1C(=O)c1ccco1 (stereo not drawn),6.13%
13,Cc1nc2nc(CSc3ccc(Cl)cc3)cc(=O)n2[nH]1,12.6%
14,Cc1cccc(NC(NC(=O)Cc2ccccc2)C(Cl)(Cl)Cl)c1 (stereo not drawn),6.24%
15,COCC(C)NC(=O)c1ccc2nc(-c3ccccc3)c(-c3ccccc3)nc2c1 (stereo not drawn),10.3%
16,C[C@H](C(=O)CC(=O)OC(C)(C)C)[C@H](O)c1ccc(C(F)(F)F)cc1,14%
17,COc1ccc(C(CC(=O)N2CCCC(C)C2)c2c(O)cc(OC)cc2OC)cc1 (stereo not drawn),10.7%
18,CC1CCCC(C)N1C(=O)c1cc(F)c(F)cc1Cl (stereo not drawn),4.42%
19,CC(C)CCN1C(Nc2ccccc2)=NC[C@@H]1Cc1ccccc1,-15%
20,Cc1cc(C)n(-c2ccc(F)cc2)c(=O)c1C(=O)O,4.43%
21,COc1ccc(CCNC(=O)C(CC(C)C)NC(N)=O)cc1 (stereo not drawn),0.238%
22,COc1ccc(NC(=O)C2CCCN2S(=O)(=O)c2ccc3c(c2)CCC(=O)N3)cc1 (stereo not drawn),-12.9%
23,COC(=O)c1cc(NS(=O)(=O)c2cccc(Cl)c2)ccc1N1CCOCC1,9.53%
24,COc1ccc(Cc2[nH]n3c(=O)cc(C(C)C)nc3c2-c2ccccc2)cc1,13.4%
25,COc1ccc(CN(CC2CCC(C(=O)O)CC2)C(=S)Nc2cccc(C)c2)cc1 (stereo not drawn),3.91%
26,COc1ccc(C(=O)N/N=C(\C)CC(=O)Nc2ccccn2)cc1OC,13.7%
27,O=C(CSc1nc(-c2ccco2)cc(C(F)(F)F)n1)Nc1ccc(C(=O)N2CCCCC2)cc1,5.61%
